Assay results as given in the supplement of paper PMC3334620.
Whole data set: some 33,000 sequences, median “E-score (-0.5 to 0.5)” near -0.021, cut for the highest 2% near 0.32. This is one part of the list.

Target: T1, Zap1 (UniProt P47043)
T1 sequence: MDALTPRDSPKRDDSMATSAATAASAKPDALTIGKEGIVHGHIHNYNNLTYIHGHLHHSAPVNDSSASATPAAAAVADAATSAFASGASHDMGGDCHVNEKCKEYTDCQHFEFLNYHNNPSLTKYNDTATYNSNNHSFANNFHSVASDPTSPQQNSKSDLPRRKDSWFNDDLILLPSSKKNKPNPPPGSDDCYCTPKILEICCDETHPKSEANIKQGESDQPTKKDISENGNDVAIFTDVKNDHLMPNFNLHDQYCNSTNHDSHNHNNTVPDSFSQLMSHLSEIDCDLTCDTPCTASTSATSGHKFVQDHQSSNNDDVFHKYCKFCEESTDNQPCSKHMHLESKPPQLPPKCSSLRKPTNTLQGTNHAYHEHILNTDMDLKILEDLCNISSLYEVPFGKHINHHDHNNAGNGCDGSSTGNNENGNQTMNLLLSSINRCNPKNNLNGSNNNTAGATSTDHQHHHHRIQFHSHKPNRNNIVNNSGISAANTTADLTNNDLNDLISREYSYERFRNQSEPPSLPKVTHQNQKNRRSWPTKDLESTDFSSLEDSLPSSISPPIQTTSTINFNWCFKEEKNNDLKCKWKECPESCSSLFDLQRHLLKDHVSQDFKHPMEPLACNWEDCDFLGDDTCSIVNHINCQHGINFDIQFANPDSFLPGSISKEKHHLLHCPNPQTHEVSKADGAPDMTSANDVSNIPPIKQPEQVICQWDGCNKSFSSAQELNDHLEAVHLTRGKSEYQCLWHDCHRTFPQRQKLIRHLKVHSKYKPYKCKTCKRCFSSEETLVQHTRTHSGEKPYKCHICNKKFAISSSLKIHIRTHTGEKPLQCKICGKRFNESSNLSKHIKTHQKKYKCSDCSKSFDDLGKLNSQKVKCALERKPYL
Assay: PBM E-score (8-mer binding enrichment) (E-score (-0.5 to 0.5)); higher = stronger / more preferred TF binding; most listed sequences are background and not binding sites
Conditions: protein concentration: 200 nM; construct: GST-full length
How it was run: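 Using PURExpress in vitro transcription/translation, GST-tagged yeast transcription factors were made in full-length or DNA-binding-domain form. These were applied at about 100-200 nM to double-stranded universal all-10-mer Agilent arrays, and bound protein was detected with fluorescent anti-GST. Scans were normalised with masliner before the Universal PBM Analysis Suite assigned E-scores to ungapped eight-base words pooled with their reverse complements.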

Sequence	PBM E-score
GACGCTGA	-0.0841
GTAGCGGA	-0.0235
CTGGTCGC	0.0992
CGTCGGGA	-0.0974
ATTGGCAA	0.134
ACGCGGAT	0.0234
ATTTCCCG	0.104
TAGAGGAA	-0.0988
AAAGCGCT	0.0136
ATCACGCA	-0.0391
CCTGTTAA	0.118
ATAGAACA	0.147
AGAGTGTA	-0.0824
AAAGGTCT	0.238
CCAATCAG	-0.187
AGCGGCAG	-0.229
CGTCACTA	-0.0123
ACTAAGGC	-0.123
CCGTGTTA	0.034
ACCTTTAG	0.348
ATGTACTA	0.139
TAGCGCCA	-0.0799
ACTTCAGA	-0.0218
GACAACCA	0.252
CGGTCAAC	0.0787

Sequence	PBM E-score
CAACTGAG	-0.0811
GAAGCCGA	-0.146
TAGGGATA	0.138
AGACGCCG	0.0452
CGGCCCAC	-0.0285
GGCATCGA	-0.21
AATACACA	0.0887
CCCTCCGC	0.0365
ATGTGGAA	-0.0654
GGAATAAC	0.288
CTGGTTAA	0.225
CCTCTTAG	0.203
TAGTTTGA	0.17
CTCGTACA	-0.116
GCTGGGCC	-0.259
CGGGAATC	-0.119
TATTCACA	0.195
CACTCGCG	-0.039
CTATCCCA	-0.0465
ACCTATGG	0.129
GAGAAACC	0.176
AGTAATTA	-0.00369
CCTCCTTA	-0.0275
AGACGAGG	-0.284
ACGTGTGA	-0.105

Sequence	PBM E-score
ATCGCGTA	-0.0361
TAAACGTA	-0.0228
AACTCTTC	-0.183
ACTGTTCG	0.0928
ATAACGCC	0.11
AACCGGTG	-0.0964
TAGGACCA	0.122
CGTGCGAC	-0.188
CATCCAAA	-0.098
CACTTCGG	-0.103
GGTTCTCA	0.278
ATTATATG	0.184
AGTGGCAG	-0.0623
CCCCGTAG	0.0246
CTCAATGA	0.0234
TGCGAAAA	0.233
CCTCACGA	0.00143
AGCAAAGC	-0.222
TAACATTA	0.0401
ATAATTCC	0.0413
GTCCGGGA	0.0602
ACCTACCC	0.316
CCAATATC	0.0316
ATCTCACA	0.108
GAAAAGTC	-0.0851

Sequence	PBM E-score
AAGAGAGG	-0.107
TACATGGA	-0.148
AAATGTTG	-0.21
AGAATGCT	-0.0551
CCAGCCAC	0.0551
ATGAAACG	-0.0893
GAGCCTAC	-0.0707
CCCCGTAA	0.16
ATTATTGA	0.0512
AGTAGTTC	0.0602
AGGGTTGC	0.46
CACAGGAC	-0.216
CAAGCGCC	-0.307
AAATCGAT	0.0994
ACTTTAGG	-0.00467
ACCTAGAG	0.141
GTCGGGCA	-0.136
GGCGCTAA	-0.199
GACTCCGC	-0.304
CCTCTCAG	-0.207
CTTTGCAA	0.187
ACCCGTTG	0.193
ACCGGAAC	0.0106
AGACGTTG	-0.229
ATATGATA	0.348

Sequence	PBM E-score
GGGAGGTA	-0.078
GCACGGCA	-0.138
AAATTCCA	0.142
TCAGAGCA	-0.192
GACTTAAC	-0.0451
ACAACAAC	0.226
ACTCAAAT	-0.0384
ACGCTGTG	0.0173
AATTAATA	0.332
ATAATATA	0.183
ATCACGTG	-0.012
GAGTGCGC	-0.0805
CGCTCCAG	-0.129
AGACACCC	0.172
AATCAAGC	-0.0841
CAACTTAC	0.043
AGGTGTCG	-0.0687
CTGGCCCA	-0.095
CATCAGGA	0.0932
AGCCGCTA	-0.243
TCGTGCAA	0.127
CGCATGAC	-0.00046
GAGGGTGC	0.138
AAGTTGAT	-0.14
CCGGCTTC	-0.213

Sequence	PBM E-score
ACTGATGC	-0.134
AGTGTCTG	-0.0406
CCTCTCTC	-0.171
CATAATCA	0.14
ACCCGGTC	-0.0272
ACTTATTC	0.02
AAGCTTCG	-0.0255
GCAGATCC	-0.296
CCACATTC	0.074
AGGGGGCC	-0.103
CATTAGCA	-0.0213
TGACCTAA	0.315
CTTTCCGC	-0.159
AGGTGACT	0.0717
ATCCTGTG	-0.127
CCAGTCGG	-0.0944
GATAGACA	-0.068
AATAATTA	0.169
ATGGGCGG	-0.125
AAGTATGG	0.158
ATTAGTAC	0.0269
CTAAGATC	0.151
AGCGTTTC	-0.249
CCCAATAG	0.118
GGTAGGTA	0.205

Sequence	PBM E-score
GCGTCCGA	-0.0869
AGCCTTTG	-0.132
ACAGCCGA	-0.124
AACGGAAT	0.114
CGCGCTAA	0.217
GAATGTAA	0.109
CGAGCACA	0.0462
ATTCCAAC	0.0852
GCCCGGCC	-0.163
GGCGGATA	-0.153
AAACATTC	-0.164
AGCCGGAA	0.0285
AGATTAGG	-0.103
GCCAACCA	-0.0675
CGTGCGTA	-0.12
ACGTAGCA	-0.0271
CGCCTTCC	-0.11
AAGGTTAA	0.415
CGACGACC	0.0298
AGGAGGCC	-0.155
CTCGGGTC	0.203
GAATATAA	0.0263
CGGTAATA	0.219
ATAGCTTC	-0.213
GATACTAC	0.0357

Sequence	PBM E-score
AACTATTG	0.136
AAGCCATT	-0.001
TTACGAAA	0.234
AGTAACCC	0.443
CCCAAAGC	-0.0932
CCTCTCCG	-0.186
AGTGACAA	0.183
AGTAGGCA	-0.159
ACGACTCG	-0.134
TCACGACA	-0.163
AGATGAGG	-0.123
GAAACCTC	0.189
AGGAGTGC	-0.29
CAGGTAAC	0.254
CGTATCTA	-0.0738
ACAGAAAC	0.185
CGATATCG	0.15
CCCTCAAC	-0.111
AGCTCTCG	-0.212
ATCTGACA	-0.133
CCATGTAG	-0.0501
AATGCCCT	-0.108
AAGAAAGA	-0.032
GGTGCCGA	0.172
CTAGAAAC	0.197

Sequence	PBM E-score
TGATCGCA	-0.0837
ACGGTCGG	-0.0383
GATCGGGA	-0.364
CTAAATAG	0.107
AGTCAATG	-0.0253
AGGGGAAG	-0.123
CCTGTGTC	-0.0773
CGTAGTAC	-0.0537
CCGCTCAA	-0.0222
AGACACTG	-0.11
GCCTCCGA	-0.184
ATCAGCGC	-0.0947
CTGCATCA	-0.0217
AAAGGGGT	0.32
CCTACTTC	-0.12
ATATACAC	0.0421
AACAACGG	-0.024
CAAGACTC	-0.0977
CATCGCGA	0.164
CCGGTCAA	0.019
CGGCACCC	0.126
ATAAGGCG	-0.121
CGGTCAAA	0.207
GGAGGAAC	-0.219
AGCTCAAA	0.116

Sequence	PBM E-score
CGACGTGA	-0.121
ATCTCAAG	0.143
AGGCTTGA	-0.11
CAGGTGGC	0.0105
ATAGTTGC	0.135
ACCAGCCG	0.108
ACTTGAAT	0.006
CGACCTCC	0.0537
CGTAGTCA	-0.126
TACAGAAA	0.123
CCAGTTCA	-0.108
GAGGATAC	-0.196
CCTCAGTA	-0.198
AATCATTA	-0.0155
GACAACTC	-0.0129
ACCCCCTC	-0.0959
CCATGGTC	0.208
ATGCAGAG	-0.113
ATGGCGAA	-0.0663
GGCTGAGA	-0.101
AAAAACAA	0.111
CGTCCTCA	-0.162
GTACCGAA	0.174
GGGATCGA	-0.0434
ACGAATTC	0.0141

Sequence	PBM E-score
CGCACCAA	-0.119
ACCGTACC	0.0466
CAGCCCCC	-0.304
CTGGGAGA	-0.111
AGCTGGGG	-0.0647
CCCCCGGC	-0.231
ATATGGAG	-0.0641
GATCCCGA	-0.0745
GTCCATCA	-0.00532
AGGTCCCG	-0.0103
GTAAGGCA	-0.208
CACGGCTG	-0.212
ACAAGTGG	-0.0149
CGATGAAC	0.0575
CCTCGCGA	0.0889
AGGCGGTC	-0.0549
ACATGCAA	-0.179
ATCCGTAC	0.0269
CTTAAACC	0.17
GACAATCA	-0.0629
CGAGTAAG	0.119
CACGTGGC	-0.172
CCTGTTTA	0.00701
GGCCCACA	0.0191
GGACCACC	0.142

Sequence	PBM E-score
CTTCAAAC	0.213
AGCTAGTA	0.029
GCGATGAA	-0.0319
AGTATTTA	0.0344
AGCTAGCT	-0.0684
GAGGAGGC	-0.29
AACACGGT	-0.00377
ATGGTAGA	-0.00844
CTGAAACA	0.0192
AACAAATT	0.262
CGATGTAG	-0.241
CTTTCTTC	-0.0581
CTAACGGA	0.109
GGAACATA	0.0158
AGAAATAC	-0.0369
AGGATACG	-0.1
AGCATGGG	-0.00439
GAATGAGA	-0.305
AATGTGCA	-0.0139
AAGTTTCC	-0.0473
TTGCGAAA	0.179
GGAGTGCA	-0.216
AAGCAAGC	-0.122
GTAAATAC	-0.094
AGTGAGCG	-0.112

Sequence	PBM E-score
GAAAAGTA	0.159
AGAGCTAG	-0.158
GTAGTCAC	2e-05
CTAGAGGA	-0.0737
CGCTACTC	-0.181
ACTTCGAT	-0.00491
AAGGGGTG	0.167
GCCTGCAA	-0.213
AGTGTAGC	-0.0965
GATCTGCC	-0.36
AAAGAATC	-0.144
CCGTTCCC	-0.151
GAGCAGCA	-0.119
ACAGCAAT	0.0582
ATACGATC	0.0949
GCGTAGCA	-0.151
TAACCCTA	0.462
ACCGCCGT	-0.0171
TAGTTTAA	0.242
AGTGGCCA	0.264
CATGCATG	-0.197
AACTCATT	-0.108
CTAAGTAG	0.146
AGAATACC	0.172
AGTACCGG	-0.02

Sequence	PBM E-score
GACCGGGC	-0.177
CGAGACTC	-0.0833
GAGGTCGC	0.175
AATTACCA	0.272
GCCCATAA	0.203
CGCTTACA	-0.0238
GAGACTGA	-0.184
CTAACCTA	0.327
GAATCGAC	-0.191
CTGTAGCC	-0.0519
ATTATGTC	-0.202
GGGCAGGA	-0.164
AAGCTTCC	-0.256
GCTCACCA	-0.134
TGTAGCAA	0.0751
CTTGGGCA	-0.055
GCTCCCCA	-0.219
CAACATGG	0.058
ATGGCACG	-0.305
